Reference: US11365205B2 (Aurigene Discovery Technologies Limited, priority 2018, dated 2022)

Molecular target: PRMT5/MEP50 Complex (Homo sapiens (Human), UniProt O14744)
Assay: PRMT5 inhibition based on TR-FRET assay
Format: biochemical
Conditions: 32 nM PRMT5:MEP50, 50 nM Histone-H4 peptide, 1 μM SAM
Description: PRMT5 Inhibition Based on TR-FRET Assay:
Protein arginine methyltransferase 5 (PRMT5) is a type II arginine methyltransferase that catalyze mono- and symmetric demethylation on arginine residues of histone or non-histone proteins in presence of S-adenosylmethionine (AdoMet or SAM) a cofactor responsible for donating the methyl group. PRMT5 is reported to be overexpressed in several human cancers. To identify compounds that inhibit the PRMT5 and decrease its activity, a TR-FRET based assay has been established. Time-resolved fluorescence resonance energy transfer (TR-FRET) HTS assays are homogeneous proximity assays where the interaction of two dye-labeled binding partners is detected by the energy transfer between a donor and an acceptor dye and the subsequent light emission by the acceptor dye. PRMT5 catalyzes Histone H4 peptide which is biotin tagged to the Lysine amino acid at carboxyl end, in presence of S-adenosyl-1-methionine (SAM) to methylate the peptide. The antibody specific to mono methylated H4 peptide (H4R3) with Ig conjugate binds to the methylated peptide, indirectly binding to the Europium lanthanide. […]
The compound dilutions were prepared as 7.5% DMSO stock solutions in assay buffer. […] The plates were then read on Victor-3 with Excitation at 340 nm and Emissions collected at 615 and 665 nm in TR-FRET protocol. […]

UniProt O14744, sequence (O14744 whole entry): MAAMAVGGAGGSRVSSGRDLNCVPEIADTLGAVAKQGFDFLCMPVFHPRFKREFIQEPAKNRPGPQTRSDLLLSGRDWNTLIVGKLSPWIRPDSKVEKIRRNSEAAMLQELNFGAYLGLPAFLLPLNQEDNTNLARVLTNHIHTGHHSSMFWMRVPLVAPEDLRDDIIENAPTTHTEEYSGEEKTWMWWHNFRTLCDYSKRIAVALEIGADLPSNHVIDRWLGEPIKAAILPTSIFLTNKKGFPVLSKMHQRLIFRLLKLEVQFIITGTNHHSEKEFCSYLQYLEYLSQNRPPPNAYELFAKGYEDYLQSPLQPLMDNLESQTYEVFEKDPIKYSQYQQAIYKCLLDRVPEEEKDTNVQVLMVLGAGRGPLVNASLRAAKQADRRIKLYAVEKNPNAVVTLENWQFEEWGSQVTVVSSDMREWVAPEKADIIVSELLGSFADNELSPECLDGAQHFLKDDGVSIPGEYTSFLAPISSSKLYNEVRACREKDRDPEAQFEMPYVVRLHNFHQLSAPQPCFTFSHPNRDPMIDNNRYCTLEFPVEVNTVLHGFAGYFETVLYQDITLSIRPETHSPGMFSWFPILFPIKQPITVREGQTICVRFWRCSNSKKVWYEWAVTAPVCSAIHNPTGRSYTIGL
UniProt O14744, sequence (Q9BQA1 whole entry partner): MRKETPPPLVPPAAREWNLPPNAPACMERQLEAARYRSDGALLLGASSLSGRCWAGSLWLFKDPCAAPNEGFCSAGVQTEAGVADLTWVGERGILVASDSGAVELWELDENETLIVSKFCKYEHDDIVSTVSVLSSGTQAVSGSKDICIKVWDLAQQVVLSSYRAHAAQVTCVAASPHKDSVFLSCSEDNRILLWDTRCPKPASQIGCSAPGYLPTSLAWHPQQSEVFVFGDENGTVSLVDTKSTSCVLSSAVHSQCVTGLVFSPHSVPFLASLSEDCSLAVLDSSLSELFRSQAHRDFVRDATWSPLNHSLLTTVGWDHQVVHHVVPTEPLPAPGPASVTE

IC50 [nM]	Structure (SMILES)
50	Cc1ccc(CN2CCN(CC(O)CN3CCc4ccccc4C3)C2=O)cc1 (single isomer, unassigned) [Example 15b, 1-(3-(3,4-Dihydroisoquinolin-2(1H)-yl)-2-hydroxypropyl)-3-(4-methyl-benzyl)imidazolidin-2-one]
190	Cc1ccccc1CN1CCN(CC(O)CN2CCc3ccccc3C2)C1=O (single isomer, unassigned) [Example 16a, 1-(3-(3,4-Dihydroisoquinolin-2(1H)-yl)-2-hydroxypropyl)-3-(2-methylbenzyl)imidazolidin-2-one]
